# Assay results as given in paper PMC12136788.
# Some of the results follow.
# T1: UNK ZnF1-3 (human, UniProt Q9C0B0 31-174)
# T1 sequence: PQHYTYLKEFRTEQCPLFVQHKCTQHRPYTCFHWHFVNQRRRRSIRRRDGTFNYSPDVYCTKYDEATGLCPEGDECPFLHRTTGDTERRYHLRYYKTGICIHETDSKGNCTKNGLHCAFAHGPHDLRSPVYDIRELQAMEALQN
# B1: chrX:71549762:71549763:+_ENSMUSG00000019087_ENSMUST00000019231|mus_mus|mus_mus_mus_hu_False|98_98 (ssRNA)
# RNA: GGGAGUUCUACAGUCCGACGAUCAAACCCGUGUACUCACUCUUAACAGCACAACAUCACCAGAAAACGAUAACGACAGCCAAGCAGGACAGACAGUUAAGUAGUACUUCCACACUCCCAAACUCAGGGAGCCCUAUAACCUUACAACAGAGGAUUGAGCAUCA
# B2: chr20:7962013:7962014:-_ENSG00000125827_ENST00000246024|hu_hu|FALSE|FALSE (ssRNA)
# RNA: GGGAGUUCUACAGUCCGACGAUCGAGGACUUCUGGCUUGAAAAAUAUUGCUUAGAAAACUUAAAAAAAAAUCAACAACAACUAUAUUUUGGACAAAACAAUUUUUUUUUAAUCUGUCUUGUAAAAUCCUUACUUCCUUUUGAGCAACAGAGGAUUGAGCAUCA
# B3: chr12:48362563:48362564:+_ENSG00000134291_ENST00000256686|hu_hu|hu_hu_hu_mus_False|88_88 (ssRNA)
# RNA: GGGAGUUCUACAGUCCGACGAUCUCCGUCAAGCCCUUCGAUAGACCCAUAGACUCUAAACUGUAAUCACUUUGUAUGGGGAAGGAAAAGAAACGCCAAAAACUUUCCAAAAAGCGGGGGUGGGGUGAGGCGGGAGGGGGAGGUCAACAGAGGAUUGAGCAUCA
# B4: chr7:3608459:3608460:+_ENSMUSG00000035632_ENSMUST00000038913|mus_hu|FALSE|FALSE (ssRNA)
# RNA: GGGAGUUCUACAGUCCGACGAUCGCUGGGCGUUGGGGAGCUGGGAGGAUUCACAGGCAGUGGCACCAGGAGGCUGGGUCCCCCUGAGUUGUUCCCUGAGCCUGGGGCCACGCCCCCAGCCCCCGUUGGGGCUGCCGCACUGGGCAACAGAGGAUUGAGCAUCA
# B5: chr4:57314706:57314707:+_ENSG00000128050_ENST00000264221|hu_mus|hu_hu_hu_mus_True|18_48 (ssRNA)
# RNA: GGGAGUUCUACAGUCCGACGAUCCAGAAUUUCAAAAAUAGCUUGUGUGGCAUGACUCAUGAUGUCCACUUCAGUCUGCCCUAUAACAAGUCCAGCAAAACAGAAUUUUGCAGCAAUCAGCUGUUCCUCAGACCACUGUGGAUCCAACAGAGGAUUGAGCAUCA
# B6: 130805848_130807722_2850_3pUTR_ENSMUSG00000027312_ENSMUST00000028781|mouse|control|control (ssRNA)
# RNA: GGGAGUUCUACAGUCCGACGAUCGCACUCCGAGCUGCUGCUAGUGCACUCGCCACACGCUGUCCGCAGGGCACAUGGUGUCCGGCACUGCUUGGCACUGUGGUUUGCAGGCCUUUCACAGACGCUGCCAUUGAGAGGGUUGAUCAACAGAGGAUUGAGCAUCA
# B7: chrX:20248510:20248511:+_ENSMUSG00000001924_ENSMUST00000001989|perfect_dup|FALSE|FALSE (ssRNA)
# RNA: GGGAGUUCUACAGUCCGACGAUCGACCUGACUGACGAUGCCUCCACGGAUGUAGUCGGAGAAGUUGGAGGUGUCACAGAUGCUAAAGGUAUAAGGACCCAGGACUUUGAUCUCCAUGGGCUGAUUUCCGUUGAGUUCAACCAUCAACAGAGGAUUGAGCAUCA
# B8: chr11:87793130:87793131:-_ENSMUSG00000020483_ENSMUST00000020775|mus_hu|FALSE|FALSE (ssRNA)
# RNA: GGGAGUUCUACAGUCCGACGAUCAGGAGAUGUGGCAGGGUCUCAGGCCCUGCUCCAGAAAUGAGGGAGAGAUGAACACAAACCAGACACUUUCAACUGGCCACACAGUCUGGGAGGGCAGGGGGAAACACAGAUUUGGACAUUCAACAGAGGAUUGAGCAUCA
# B9: chr1:163117127:163117128:-_ENSG00000143248_ENST00000313961|hu_mus|hu_hu_hu_mus_False|38_38 (ssRNA)
# RNA: GGGAGUUCUACAGUCCGACGAUCUGCUACAAAGGAUGUAACUCAACUCACAGGGCAACUUUUGGAAGCCUGACCAGAUGACUACUUGAUUAGCUCCUGAUAAAACUCAGAGCGCACAAAGCGGGGCAGAGAAUCCUUCUCCAUCAACAGAGGAUUGAGCAUCA
# B10: chr12:42180722:42180723:-_ENSMUSG00000036295_ENSMUST00000043884|mus_hu|mus_mus_mus_hu_True|8_8 (ssRNA)
# RNA: GGGAGUUCUACAGUCCGACGAUCCUGUAGGAGAAGAAUCUGUGUGUUAGCUGGCAAUCUGGCUGGGAAAGUUAAAAGACCUAAAUCAUUACAAUCCACUGUAGAUGCUUCCAUAUAAAUGGAUCUGGGGGUAAACCAAGGCCUCAACAGAGGAUUGAGCAUCA
# B11: chr11:51934471:51934472:+_ENSMUSG00000020349_ENSMUST00000020608|perfect_dup|motif|central (ssRNA)
# RNA: GGGAGUUCUACAGUCCGACGAUCGAUUGCAGCUUGGUUACCACAACGAUAGCAAUAGUUUGGAGCACUGAAAAUUGUUACGGCGUUCCGGUCAUGGCACCAGUUAUAUCCCUCCAUCACCAGCUGGUGAGCUCUGGACACCAACAACAGAGGAUUGAGCAUCA
# B12: chr1:28564368:28564369:+_ENSG00000130770_ENST00000335514|hu_hu|FALSE|FALSE (ssRNA)
# RNA: GGGAGUUCUACAGUCCGACGAUCCUCAAUCUCCUUCUUAUGAUGAACGAUUUCUUCUUCAUGGUGUUUUUUCAAAGCUGCCAGUUGUUCUCUACUCUGUGCUCGGAAAUAUCGUUCCUCUUCAGCCUGCUCUCUCUUUCCGAACAACAGAGGAUUGAGCAUCA
# B13: 62954625_62958383_5419_CDS_ENSG00000116641_ENST00000251157|human|control|control (ssRNA)
# RNA: GGGAGUUCUACAGUCCGACGAUCUGCUUCUUGAAGUUUACCAUGAAUUGUGGAUAGUUUCUUUGCAUCCCGAUUAGCUUCAUGAAUAGGAAUAAGUACUUUGUAAACUUCAUUAACUGCUUCAUACAUGCCAGCCAUAGAGAACAACAGAGGAUUGAGCAUCA
# B14: chr1:66461069:66461070:+_ENSMUSG00000015222_ENSMUST00000114013|mus_mus|FALSE|FALSE (ssRNA)
# RNA: GGGAGUUCUACAGUCCGACGAUCUUGACUAUCUGGUUUUACAGUGACUGGGCUUUCAUCAGCGACAGGUGGCAAACUGGUACUACUCUCUGCAAGCAUAGCCUCUGAUGGGACUGAUUUCCUCCUGGCAACCUCAGCAUCUGCCAACAGAGGAUUGAGCAUCA
# Target: T1, UNK ZnF1-3
# Test: nsRBNS (natural sequence RNA bind-n-seq); RBNS binding buffer (assumed for nsRBNS): 25 mM Tris pH 7.5, 150 mM KCl, 3 mM MgCl2, 0.01% Triton X-100, 500 ug/ml BSA, 20 U/ml SUPERase-In, 4 C; UNK is unkempt and MSI1 is Musashi-1; names of the RNAs are library labels; protein concentration not given here; high values mean tight binding
row,Binder,binding signal [enrichment R]
1,B1,1.88
2,B2,1.23
3,B3,2.08
4,B4,0.67
5,B5,0.999
6,B6,0.361
7,B7,0.463
8,B8,1.71
9,B9,1.12
10,B10,1.15
11,B11,1.16
12,B12,0.498
13,B13,1.01
14,B14,0.706
